This is one part of the list.
The sequences below were run on PF3D7_0420300 AP2 domain 1 (GST-tagged) (assay: gcPBM binding intensity (ln(normalized median fluorescence intensity)); higher = stronger DNA binding).
Outline: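 Using an Agilent 4 × 180k array, primer-extended double-stranded 36-bp intergenic genomic probes and negative controls were exposed for 1 h to GST-fused P. falciparum DNA-binding domains expressed in E. coli. Binding was carried out in 1× PBS with 1% milk, 0.2 mg/ml BSA, 0.5% salmon testes DNA and 0.03% Triton X-100, and protein was detected with Alexa488 anti-GST antibody and a 488 nm scan. Binding intensity is the highest Masliner-normalised natural-log median intensity across replicate spots of either probe orientation.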

| Sequence | gcPBM binding intensity (ln) |
| --- | --- |
| TATATTTACAATAAAACGTTATTTTTTGTTATTTTC [CACACA_negctrl_site612] | 9.22 |
| TTTTTTTTAAAAAACACACACCTAAACAAGATATTT [CACACA_site6541] | 9.5 |
| CATATTTTTAAATACACACACATAAAAAAAAAAAAA [CACACA_site1095] | 9.68 |
| AAATAAAAAAGTAGTACACACTTCACGATATTTTTT [CACACA_site6015] | 9.42 |
| AAAAATATAAACTGCACACACACAAAAAAAGAAAAA [CACACA_site648] | 10.1 |
| AAATATTTTTTTTCTACACACATACAAATATATATT [CACACA_site5325] | 9.63 |
| AATAATAACACCGTGGATACACAATAACAAAGAACT [CACACA_negctrl_site532] | 10.1 |
| TTTCATTTAGCTTTTACACACTATATATCATTGATT [CACACA_site6158] | 9.7 |
| TGAGAGTTCTCATATGCACACAAAAAACTTTCATTT [CACACA_site7898] | 9.28 |
| TACATATACATATACACACACACACCCAAATAAATA [CACACA_site1344] | 10.1 |
| TTGCAACTCTTCAATCGTACACATTATTTATTATAT [XGTACX_site1377] | 9.51 |
| GAAAAAAAAAAAAAAAAAAAAAGGAAAAAAGTGAAA [CACACA_negctrl_site996] | 9.21 |
| ATAAAACAATAAAATTGTACATAAATTGATTATACT [XGTACX_site6723] | 9.34 |
| GAATAAATAGACGAGTGTACTTTTTTTTAAAAAAAA [XGTACX_site7880] | 9.08 |
| ACGTTTACGTTATTATGTACGTAATATATCATACCT [XGTACX_site5006] | 9.09 |
| AATTAAATTAGAAGCACACACATATTTATATTTATA [CACACA_site7552] | 9.7 |
| GTATATATTTAAACACGTACACAAAACCCAAAAAAT [XGTACX_site8110] | 9.52 |
| ATACACTCACTCACACGTACAGACAACGGACGATCA [XGTACX_site1097] | 9.53 |
| ATAATATATATTAAACGTACATAAAATAATTATGGA [XGTACX_site1670] | 9.49 |
| TAATATTTATGTTAATGTACAAAAAAACAAAACAAA [XGTACX_site301] | 9.31 |
| GTATGTATATATGTATGTACTTATGTATCATTATTA [XGTACX_site2438] | 9.34 |
| TAAGAATAATGACATAGTACAATTTAATAGATCTAA [XGTACX_site3670] | 9.1 |

| Sequence | gcPBM binding intensity (ln) |
| --- | --- |
| AAGTTTATTTGTTGCACACATATAAGTAGAGAAAAT [CACACA_site3027] | 9.48 |
| TTTTCAAAATAATATTATATCAAATGCTAAAAAGAA [TGCATGCA_negctrl_site588] | 8.96 |
| TACAGATATTATTGCACACATATAAAATACCCCCAA [CACACA_site6014] | 9.89 |
| TTACGTTATATACATACACACCCACGCACAAAAAAA [CACACA_site6537] | 9.68 |
| ATTAAATACTTCGATTGTACAATTTTTTTTTTTTTT [XGTACX_site832] | 9.21 |
| ATATATATATATCACCGTACTTATATAATAACATGA [XGTACX_site4398] | 9.34 |
| TTTTTTTTTTATTTTTGTACATATATTTCAGTATTA [XGTACX_site8396] | 9.19 |
| TAATTATTCTATTAAGTGCATATATTTTTAAAAAGA | 8.88 |
| ACAGATATATTTATTTGTACATATCACCAAAATGGA [XGTACX_site5644] | 9.24 |
| ATAATATTCGAGTGTGCACACAAACATACATATATA [CACACA_site3396] | 9.88 |
| ATTTTTATTAAAATATGTACGTATTTTACTCATACA [XGTACX_site5330] | 9.27 |
| ATACAGAAAAAAAACACACACACATAATATACATAC [CACACA_site1933] | 10.1 |
| TTAATATAATAAAATCGTACAAATAAAATATAAAAT [XGTACX_site8730] | 9.5 |
| AAAAATGAGAAACACACACACATATATATATATATA [CACACA_site2228] | 9.65 |
| AACCAATATGAGTATACACACATAAATATAAATATA [CACACA_site5968] | 9.59 |
| AAAAAAAAAAAAGATACACACAAAAATGGATATATA [CACACA_site7069] | 9.67 |
| TAGTGTATGATAATATGTACATACATTTATATAATA [XGTACX_site6330] | 9.11 |
| TCTTTTTTTTTTTTTTTTTCTTCTTCTCAATATAAA [GTGCAC_negctrl_site303] | 9.22 |
| TATGCACACAATATATGTACTTATATATTTTAAAAA [XGTACX_site5482] | 9.13 |
| TTTTATAAAAAAACTATAAAAATATATAGTACTTAA [CACACA_negctrl_site440] | 8.84 |
| CATAATATGTGGACTTTACACACTTGTTTTAAAATT [CACACA_site819] | 9.43 |
| AATAATAAAAAATACACACACATATAAATATATTAC [CACACA_site7597] | 10.1 |
